Test results reported in the supplement of paper PMC4967469.
IC50 is the fitted dose that halves viability relative to control wells, and lower means more sensitive; where the fit passes the top or lowest dose, that dose stands as a limit. For AUC the same curve is integrated over the 256-fold range of doses and scaled to a fraction; the more sensitive the line, the further below 1. For some of these results: Any top dose called inferred was calculated from the reported fits. For some of these results: Where an entry number is given, a second screen of the drug exists; the two often differ.

Tests used:
Assay in all cases: Viability of human cancer cell lines after 72 h of drug (GDSC screen)
PI-103 = compound: Oc1cccc(-c2nc(N3CCOCC3)c3oc4ncccc4c3n2)c1 [PI-103]; details: top dose 10.24 µM
Description: (§1)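 Human cancer cell lines in 384-well plates, medium with 10% serum, drug for 72 h over a 256-fold dose range (nine 2-fold or five 4-fold steps up to the top dose). Adherent lines were fixed and stained with the nucleic acid dye Syto60, suspension lines read with resazurin; signal relative to control wells, capped at 0 and 100%. One two-parameter sigmoid per drug and line, fitted in a mixed model over all curves with the slope shared within a line.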

SB-505124 = compound: Cc1cccc(-c2[nH]c(C(C)(C)C)nc2-c2ccc3c(c2)OCO3)n1 [SB-505124]; details: top dose 10 µM; top dose inferred
Description: as §1

UNC0638 = compound: COc1cc2c(NC3CCN(C(C)C)CC3)nc(C3CCCCC3)nc2cc1OCCCN1CCCC1 [UNC0638]
Description: as §1

GSK690693 = compound: CCn1c(-c2nonc2N)nc2c(C#CC(C)(C)O)ncc(OC[C@H]3CCCNC3)c21 [GSK690693]; details: top dose 10.24 µM; top dose inferred
Description: as §1

Tretinoin = compound: CC1=C(/C=C/C(C)=C/C=C/C(C)=C/C(=O)O)C(C)(C)CCC1 [Tretinoin]; details: top dose 10 µM; top dose inferred
Description: as §1

WH-4-023 = compound: COc1ccc(N(C(=O)Oc2c(C)cccc2C)c2ccnc(Nc3ccc(N4CCN(C)CC4)cc3)n2)c(OC)c1 [WH-4-023]; details: top dose 5.12 µM; top dose inferred
Description: as §1

BX-795 = compound: O=C(NCCCNc1nc(Nc2cccc(NC(=O)N3CCCC3)c2)ncc1I)c1cccs1 [BX-795]; details: top dose 5 µM; top dose inferred
Description: as §1

[1] = top dose 20 µM, screen: GDSC drug entry 1236, top dose inferred
[2] = top dose 40 µM, screen: GDSC drug entry 245

Cell Line | AUC (PI-103) | IC50 (PI-103) [µM] | AUC (SB-505124) | IC50 (SB-505124) [µM] | AUC (UNC0638; [1]) | IC50 (UNC0638; [1]) [µM] | AUC (UNC0638; [2]) | IC50 (UNC0638; [2]) [µM] | AUC (GSK690693) | IC50 (GSK690693) [µM] | AUC (Tretinoin) | IC50 (Tretinoin) [µM] | AUC (WH-4-023) | IC50 (WH-4-023) [µM] | AUC (BX-795) | IC50 (BX-795) [µM]
TE-11 (oesophagus, adherent) | 0.99 | > 10.2 | 0.96 | > 10 | 0.989 | > 20 | 0.985 | > 40 | 0.989 | > 10.2 | 0.949 | > 10 | 0.953 | > 5.12 | 0.768 | 1.71
TE-12 (oesophagus, suspension) | 0.452 | 0.461 | 0.971 | > 10 | 0.926 | > 20 | 0.924 | > 40 | 0.943 | > 10.2 | 0.906 | > 10 | 0.527 | 0.384 | 0.93 | > 5
TE-15 (oesophagus, suspension) | 0.361 | 0.25 | 0.981 | > 10 | 0.982 | > 20 | 0.819 | 26.6 | 0.872 | > 10.2 | 0.966 | > 10 | 0.377 | 0.14 | 0.875 | > 5
TGBC1TKB (biliary tract, adherent) | 0.989 | > 10.2 | 0.968 | > 10 | 0.988 | > 20 | 0.88 | > 40 | 0.987 | > 10.2 | 0.985 | > 10 | 0.932 | > 5.12 | 0.948 | > 5
TGW (neuroblastoma, adherent) | 0.649 | 1.55 | 0.977 | > 10 | 0.96 | > 20 | 0.861 | 26.4 | 0.991 | > 10.2 | 0.804 | 4.19 | 0.956 | > 5.12 | 0.766 | 1.6
TK10 (kidney, adherent) | 0.875 | > 10.2 | 0.954 | > 10 | 0.746 | 7.49 | 0.976 | > 40 | 0.859 | > 10.2 | 0.98 | > 10 | 0.672 | – | 0.874 | > 5
TUR (B-cell lymphoma, suspension) | 0.557 | 0.903 | 0.979 | > 10 | 0.712 | 4.69 | 0.654 | 6.46 | 0.497 | 0.628 | 0.721 | 2.5 | 0.978 | > 5.12 | 0.676 | 0.926
U-87-MG (glioma, adherent) | 0.661 | 1.95 | 0.983 | > 10 | 0.983 | > 20 | 0.746 | 14.6 | 0.924 | > 10.2 | 0.985 | > 10 | 0.984 | > 5.12 | 0.915 | > 5
